Test results taken from PMC4336329 (PLoS ONE, 2015).
In all, about 310,000 compounds went through this assay and about 14,000 (4.5%) showed an effect of 50% or more. Effects have a minus sign here. The list shows a part of the results.

Target: human ether-à-go-go-related gene (hERG) potassium channel (human, UniProt Q12809)
Experiment: primary screen, population patch clamp on CHO cells stably expressing hERG
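Also: peak tail current of the secondary pulse compared with the same well before compound.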

Sequence of human ether-à-go-go-related gene (hERG) potassium channel (Q12809 whole entry, looked up): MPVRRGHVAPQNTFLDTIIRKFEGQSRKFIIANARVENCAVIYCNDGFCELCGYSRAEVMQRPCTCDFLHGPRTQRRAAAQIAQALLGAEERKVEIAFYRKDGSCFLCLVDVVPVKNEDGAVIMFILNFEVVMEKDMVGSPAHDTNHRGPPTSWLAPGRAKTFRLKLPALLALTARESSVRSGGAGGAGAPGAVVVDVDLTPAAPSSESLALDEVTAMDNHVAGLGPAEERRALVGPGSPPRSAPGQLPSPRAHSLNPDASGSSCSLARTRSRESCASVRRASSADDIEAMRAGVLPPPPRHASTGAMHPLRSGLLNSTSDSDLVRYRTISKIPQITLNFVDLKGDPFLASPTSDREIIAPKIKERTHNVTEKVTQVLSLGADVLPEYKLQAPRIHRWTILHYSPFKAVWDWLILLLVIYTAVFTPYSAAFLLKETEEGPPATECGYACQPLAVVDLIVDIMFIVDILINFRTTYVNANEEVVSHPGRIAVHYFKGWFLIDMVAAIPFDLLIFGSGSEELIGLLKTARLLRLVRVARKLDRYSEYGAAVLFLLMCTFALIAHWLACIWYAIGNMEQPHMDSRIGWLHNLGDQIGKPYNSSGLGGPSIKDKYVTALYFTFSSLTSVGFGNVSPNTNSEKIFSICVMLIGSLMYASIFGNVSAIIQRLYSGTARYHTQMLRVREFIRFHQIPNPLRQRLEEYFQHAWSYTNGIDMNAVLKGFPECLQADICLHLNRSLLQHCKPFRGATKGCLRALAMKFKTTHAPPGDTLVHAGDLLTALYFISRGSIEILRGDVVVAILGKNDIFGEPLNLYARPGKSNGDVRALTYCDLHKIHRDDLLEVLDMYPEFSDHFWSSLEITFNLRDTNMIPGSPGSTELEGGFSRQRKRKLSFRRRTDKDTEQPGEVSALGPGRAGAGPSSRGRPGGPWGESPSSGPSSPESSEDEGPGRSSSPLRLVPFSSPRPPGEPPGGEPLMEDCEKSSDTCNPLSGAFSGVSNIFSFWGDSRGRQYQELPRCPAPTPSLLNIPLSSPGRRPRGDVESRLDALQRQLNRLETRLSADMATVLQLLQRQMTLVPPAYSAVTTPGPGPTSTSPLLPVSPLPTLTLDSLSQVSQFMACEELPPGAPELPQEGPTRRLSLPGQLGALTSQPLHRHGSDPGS

| SMILES | hERG current change (%, negative = inhibition) at 10uM [%] |
| --- | --- |
| CCCCCCCCNc1nc(Cl)nc(NCCN2CCOCC2)n1 | 9.29 |
| COc1cc2nc(CN(C)Cc3ccc(SC)cc3)[nH]c(=O)c2cc1OC | -16.9 |
| C/C(CCC1CC(C)OC1=O)=N\NC(N)=S (stereo not drawn) | 7.65 |
| CCCn1c(N2CCN(CC(=O)c3c(C)n(C)c4ccccc34)CC2)nc2c1c(=O)[nH]c(=O)n2C | -7.94 |
| CC(C)c1ccc2[nH]c3c(c2c1)[C@@H]1CCN2C(=O)CCC[C@H](C3)[C@H]12 | -12.8 |
| CC(=O)Nc1ccc(S(=O)(=O)N2CCC(C(N)=O)(N3CCCCC3)CC2)cc1 | 10.1 |
| CC(C)c1ncc(C(O)c2cccc3ccccc23)n1C (stereo not drawn) | -1.74 |
| O=[N+]([O-])c1cccc(S(=O)(=O)c2ccc(NCCOCCO)c([N+](=O)[O-])c2)c1 | -38.3 |
| Cc1cccc(OCCSc2nc3c([nH]2)c(=N)ncn3Cc2ccccc2)c1 | -1.53 |
| C/C(=N\NC(=O)Cn1cc([N+](=O)[O-])cn1)c1ccco1 | 2.38 |
| CCOc1ccc(NC(=O)Nc2nc(SCC)ns2)cc1 | 13.2 |
| O=C(/C=C/c1ccc(Cl)cc1)OCC(=O)c1ccc[nH]1 | 8.72 |
| COc1ccc(Cl)cc1NC(=O)C1CCN(S(C)(=O)=O)CC1 | 3.72 |
| CCOC(CCNC(=O)c1cn(C)c(=O)c2c1c1ccccc1n2C)OCC | -4.27 |
| Cc1ccc(C)c(OCC(=O)N/N=C/c2c(C)nn(-c3ccccc3)c2Cl)c1C | -0.0873 |
| COCCc1ccc(OCC(O)CNC(C)C)cc1.O=C(O)C(O)C(O)C(=O)O (stereo not drawn) | 7.38 |
| CN(C)c1ccc(/C=N/NC(=O)c2ccc(CN3C(=O)c4cccc5cccc3c45)cc2)cc1 | 14.9 |
| CCC(C)COC(=O)c1ccc(C(=O)O)cc1 (stereo not drawn) | 2.44 |
| N#CCCN(Cc1cccnc1)S(=O)(=O)c1ccc(S(=O)(=O)NC2CCCCC2)cc1 | 5.37 |
| COc1ccc(-n2c(Cc3cccn3C)nnc2SCC(=O)NCc2ccccc2Cl)cc1 | -40.2 |
| CCCCN(C1CCS(=O)(=O)C1)S(=O)(=O)c1cc(C)ccc1C (stereo not drawn) | -20.9 |
| Cc1c(C(=O)N2CCN(C(=O)c3ccco3)CC2)oc2c(Cl)cccc12 | -34.3 |
| CC(C)C(=O)NC(=S)Nc1ccc(S(=O)(=O)Nc2ccccc2)cc1 | -15.2 |

| SMILES | hERG current change (%, negative = inhibition) at 10uM [%] |
| --- | --- |
| O=C(Nc1ccc(Cl)cc1)Nc1nnc(/C=C/c2ccccc2)s1 | 6.96 |
| Cc1cccc(N2CCN(C(c3ccncc3)c3nnnn3C(C)(C)C)CC2)c1C (stereo not drawn) | -23.8 |
| S=C(Nc1ccc(Cl)cc1Cl)Nn1cnnc1 | 56.7 |
| COc1ccc(CCNC(=O)c2c(O)c3ccccc3n(C)c2=O)cc1 | -12.1 |
| CCN(CC)CCCN(Cc1cc2cc3c(cc2[nH]c1=O)OCO3)C(=O)Nc1ccccc1OC | -10.6 |
| CC(=O)c1cc2c(cc1NC(=O)CN1CCC(Cc3ccccc3)CC1)OCO2 | 4.54 |
| COc1cc(S(=O)(=O)N(C)C)ccc1Br | 1.52 |
| CSc1ccccc1C(=O)NCCCn1ccnc1 | 18.2 |
| CCCOc1ccc(C2C(C(=O)c3cc4ccccc4o3)=C(O)C(=O)N2c2cc(C)on2)cc1OC (stereo not drawn) | 25.3 |
| CN(C)S(=O)(=O)c1ccc(NC(=O)N2CCN(c3ccccc3Cl)CC2)cc1 | 10.1 |
| CCOC(=O)c1sc(-c2ccc(F)cc2)cc1N | 2 |
| O=C(CNC(=O)c1ccco1)OCN1C(=O)c2ccccc2C1=O | 12.3 |
| COc1ccccc1CNC(=O)CSc1nnc2c(n1)[nH]c1ccc(F)cc12 | -44 |
| COCCNC(=O)c1c(N)n(/N=C/c2cccs2)c2nc3ccccc3nc12 | -1.97 |
| COCCN(CCOC)C(=O)CC(=O)N(CCOC)CCOC | 14.4 |
| NS(=O)(=O)c1ccc(CCNC(=O)COC(=O)Cc2c(F)cccc2Cl)cc1 | 13.5 |
| Fc1ccccc1-c1ccc(/C=N/Nc2nc3ccccc3[nH]2)o1 | -7.27 |
| COC(=O)Cn1cnc2c(C#N)c3n(c2c1=O)CCCCC3 | -8.01 |
| Cc1ccc(OCC(=O)N/N=C2\CC(=O)CC(C)(C)C2)c(Br)c1 | -9.33 |
| COC(=O)NCC(c1ccco1)N1CCN(c2ccc(OC)cc2)CC1 (stereo not drawn) | 7.52 |
| O=C(CSc1nnc(-c2n[nH]c3ccccc23)n1-c1ccccc1)Nc1cccc(Cl)c1 | -3.41 |
| COc1ccccc1/C=N/NC(=O)c1ccc(=O)n(C)c1 | 14.1 |
